# The whole screen tested about 310,000 compounds, of which about 2,200 (0.71%) showed an effect of 50% or more. The effect is printed as a negative number. Some of the results follow.
# Molecular target: human ether-à-go-go-related gene (hERG) potassium channel (human, UniProt Q12809)
# Assay: primary screen, population patch clamp on CHO cells stably expressing hERG
# Chain of human ether-à-go-go-related gene (hERG) potassium channel (Q12809 whole entry, looked up): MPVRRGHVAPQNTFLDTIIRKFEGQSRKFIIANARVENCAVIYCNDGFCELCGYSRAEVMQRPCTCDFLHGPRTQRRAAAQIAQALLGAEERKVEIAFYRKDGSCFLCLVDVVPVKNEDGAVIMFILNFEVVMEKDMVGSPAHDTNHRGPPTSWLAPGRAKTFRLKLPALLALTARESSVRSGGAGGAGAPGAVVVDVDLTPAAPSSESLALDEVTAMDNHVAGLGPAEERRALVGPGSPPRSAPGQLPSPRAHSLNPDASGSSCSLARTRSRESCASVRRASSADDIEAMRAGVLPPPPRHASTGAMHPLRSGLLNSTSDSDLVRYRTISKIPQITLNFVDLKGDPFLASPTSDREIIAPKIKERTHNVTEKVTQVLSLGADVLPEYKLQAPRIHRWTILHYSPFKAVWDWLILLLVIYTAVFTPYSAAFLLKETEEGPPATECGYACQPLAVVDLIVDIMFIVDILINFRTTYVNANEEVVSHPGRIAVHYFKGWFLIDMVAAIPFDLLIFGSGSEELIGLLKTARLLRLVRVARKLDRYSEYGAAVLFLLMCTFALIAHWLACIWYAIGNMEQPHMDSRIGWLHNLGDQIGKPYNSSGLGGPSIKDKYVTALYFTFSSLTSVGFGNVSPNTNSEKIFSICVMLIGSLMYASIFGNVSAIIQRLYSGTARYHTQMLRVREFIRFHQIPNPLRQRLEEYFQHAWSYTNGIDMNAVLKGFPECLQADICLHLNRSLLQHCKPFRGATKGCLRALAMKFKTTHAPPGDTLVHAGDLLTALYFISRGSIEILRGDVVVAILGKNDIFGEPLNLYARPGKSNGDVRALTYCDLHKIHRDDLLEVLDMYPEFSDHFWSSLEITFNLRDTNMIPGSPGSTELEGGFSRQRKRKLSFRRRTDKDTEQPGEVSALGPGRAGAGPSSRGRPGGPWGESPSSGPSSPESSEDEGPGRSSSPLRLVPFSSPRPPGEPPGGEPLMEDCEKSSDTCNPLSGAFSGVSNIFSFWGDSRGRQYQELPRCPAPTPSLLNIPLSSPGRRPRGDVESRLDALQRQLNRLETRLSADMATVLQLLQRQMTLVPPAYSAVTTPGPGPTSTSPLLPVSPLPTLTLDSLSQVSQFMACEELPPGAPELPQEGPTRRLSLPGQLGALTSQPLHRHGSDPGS
row,Compound,"hERG current change (%, negative = inhibition) at 1uM [%]"
1,O=C(Cc1ccc(Cl)cc1)N/N=C/c1cccc(O)c1,-4.42
2,Cc1ccc(C(=O)/C=C\C(=O)c2ccc(C)cc2)cc1,22.9
3,Cc1ccc2cc(C(c3nnnn3C3CCCC3)N3CCOCC3)c(=O)[nH]c2c1C (stereo not shown),-3.3
4,Cc1cccc(Nc2nc(-c3sc(C)nc3C)cs2)c1,11.9
5,CC(=O)c1cccc(OCc2cc(C(=O)N(C)C(C)c3ccccn3)no2)c1 (stereo not shown),15.2
6,Cc1[nH]c2ccccc2c1SCc1ccccc1,-4.68
7,CC(C)c1ccc(C2C(C(=O)c3ccco3)=C(O)C(=O)N2CCN2CCOCC2)cc1 (stereo not shown),13.3
8,CCOc1ccc2nc(N(CCN(CC)CC)C(=O)c3cccc([N+](=O)[O-])c3)sc2c1.Cl,-0.368
9,COc1ccc(-c2c(-c3ccc(O)cc3O)n[nH]c2C)cc1OC,-7.81
10,CCOC(=O)c1c(C)[nH]c(C)c1C(=O)COc1ncnc2cc([N+](=O)[O-])ccc12,3.53
11,CCCCCCCCSc1nnc(CSc2nc3nc(C)cc(C)n3n2)o1,-3.12
12,CCS(=O)(=O)N1CCCC(C(=O)NCc2ccccc2Cl)C1 (stereo not shown),1.54
13,Cc1ccc2c(c1)N(CC(=O)N(Cc1ccccn1)Cc1ccco1)C(=O)C(C(C)C)O2 (stereo not shown),1.3
14,CC(C)NC(=O)c1onc(CSc2ccc(F)c(F)c2)c1C(=O)O,10.2
15,COc1ccc2c(c1OC)C(=O)OC2,14.3
16,COc1ccc(CCNC(=O)c2nnn(CC(=O)Nc3c(C)cc(C)cc3C)c2N)cc1OC,8.6
17,CC1(C)CC(=O)c2c(O)cc(OCC(=O)Nc3ccc(S(N)(=O)=O)cc3)cc2O1,6.76
18,O=C(CCc1nnc(CCCCc2ccccc2)o1)NC1CCCC1,9.51
19,COc1ccc(CCNC(=O)Nc2ccc3c(c2)OCO3)cc1OC,14.7
20,Cc1nc(Cc2nnc(SCC(=O)N3CCN(c4ccc(F)cc4)CC3)o2)cs1,-4.72
21,C/C(=N\NC(=O)CCCC(=O)O)c1c(-c2ccccc2)c2cc(Cl)ccc2[nH]c1=O,18.9
22,CC(=O)Nc1c(O)nc(SCC(=O)Nc2nnc(SCc3ccccc3)s2)[nH]c1=O,14.8
23,CCOC(=O)c1ccc(N2C(=O)CC(N3CCC(C(=O)OCC)CC3)C2=O)cc1 (stereo not shown),1.92
24,COC(=O)c1ccc(/C=N\NC(=O)c2ccc(C)cc2Cl)cc1,13.7
25,O=C(Cc1ccc(-n2c(=O)c3ccccc3n(Cc3ccc(F)cc3)c2=O)cc1)NCC1CCCO1 (stereo not shown),5.44
26,CC(C(=O)Nc1ccc(S(=O)(=O)N2CCCC2)cc1)N1CCc2ccccc2C1 (stereo not shown),6.57
27,CC(C)Oc1ccc(CCC(=O)N/N=C/c2ccncc2)cc1,13.6
28,CCOC(=O)c1c(C)nc2sc3c(=O)n(-c4ccc(C(C)=O)cc4)cnc3c2c1-c1ccc(Cl)cc1,13.9

row,Compound,"hERG current change (%, negative = inhibition) at 1uM [%]"
1,CCN(C(=O)CN1CCc2ccccc21)c1c(N)n(Cc2ccccc2)c(=O)[nH]c1=O,6.71
2,CC(C)(C)S(=O)(=O)c1ccsc1C(=O)O,6.16
3,O=C(COC(=O)c1ccccc1NS(=O)(=O)c1cccs1)NCC12CC3CC(CC(C3)C1)C2,12.2
4,COC(=O)C1=C(C)N(CCCC(=O)O)C(=O)NC1c1cccs1 (stereo not shown),14.4
5,CCOC(=O)N/N=C/c1cn(Cc2ccc(Cl)cc2)c2ccccc12,25.7
6,COC(=O)c1cc(N2CCN(C)CC2)nc2ccccc12.Cl,10.2
7,O=C(CCC(=O)c1ccccc1)Nc1ccc(C(=O)O)cc1,13.7
8,COc1ccc(/C=N/NC(=O)C(=O)N2CCCC2)cc1,13.9
9,COc1ccc2nc3ccccc3nc2c1,4.47
10,CCOC(=O)CN(Cc1ccccc1)S(=O)(=O)c1ccc(NC(C)=O)cc1,-10.7
11,CCCCn1c(=O)n(CC(=O)Nc2ccc(C)c(Cl)c2)c(=O)c2c1ncn2Cc1ccco1,-2.76
12,Cc1ccc(S(=O)(=O)Nc2ccc(C(=O)N3CCOCC3)cc2)cc1,11.9
13,CCOC(=O)c1c(C)[nH]c(C)c1S(=O)(=O)N(C)CC(=O)Nc1ccccc1F,12.3
14,COC(=O)Cc1c(C)[nH]n(-c2cc(Cl)cc(Cl)c2)c1=O,10.8
15,CCN(CC)c1ccc(CNCCc2ccc(F)cc2)cc1.Cl,-10.4
16,O=c1c([N+](=O)[O-])c(O)c2ccccc2n1Cc1ccccc1,14.5
17,C/C(=N/NC(=O)c1ccc(C)nc1)c1ccc2c(c1)CCCC2,-4.02
18,COc1ccc(C2CC(=O)C(C=NCCN3CCOCC3)=C(O)C2)cc1 (stereo not shown),11
19,COC(=O)C1C2C=CC(C3CC23)C1C(=O)OCC(=O)c1ccccc1 (stereo not shown),11.7
20,Cc1cccc(C(=O)OC(C)C(=O)NC(=O)NC2CCCCC2)c1O (stereo not shown),8.19
21,Cc1sc2nc(C)n(/N=C/c3ccc(O)cc3O)c(=O)c2c1C,3.03
22,COc1ccc(S(=O)(=O)NC(C)C(=O)Nc2ccc3c(c2)OCCO3)cc1OC (stereo not shown),9.81
23,COc1cc(CNc2ccc3[nH]c(=O)[nH]c3c2)ccc1OCc1ccc(C)cc1,12.4
24,COc1ccc(-c2nc(N)n(C(C)=O)n2)cc1,15.8
25,CSCCC(NS(=O)(=O)c1ccc(Cl)cc1)C(=O)OCC(=O)NC12CC3CC(CC(C3)C1)C2 (stereo not shown),17.3
26,O=C(CSCc1ccc(Cl)cc1)Nc1ccc2c(c1)OCO2,8.51
27,COc1ccccc1-n1c(C)cc(/C=C2\C(=N)N3N=C(CC(=O)N4CCOCC4)SC3=NC2=O)c1C,18.4

# — PMC4336329 (PLoS ONE, 2015)
